Drawing on PMC12820563, this text covers binding signal (RPM ratio (pull-down/input)) for 63 sequences.

The other results are listed elsewhere or left out. The list includes weakly bound sequences.

The target of this test is T1, MBP-FoxP3dN (UniProt Q99JB6).
T1 sequence: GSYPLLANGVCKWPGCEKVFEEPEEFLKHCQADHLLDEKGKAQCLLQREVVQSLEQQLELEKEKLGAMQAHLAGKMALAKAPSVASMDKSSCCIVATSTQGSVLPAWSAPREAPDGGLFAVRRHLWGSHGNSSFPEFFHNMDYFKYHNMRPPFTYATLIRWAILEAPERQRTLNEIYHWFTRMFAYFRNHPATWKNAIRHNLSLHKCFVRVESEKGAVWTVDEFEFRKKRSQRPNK
Description: PD-seq (MBP pull-down with sequencing). Particulars: 20 mM Tris-HCl pH 7.5, 100 mM NaCl, 1.5 mM MgCl2, 0.4 uM protein, 0.1 uM dsDNA library, 30 min, room temperature, amylose pull-down; high values mean tight binding; double strand, one strand shown.
For “GATGATTGTTCTCCCAGCTGATGAATTGCGCGTCTCGAGTAAACAAATTTTCCTAATCTTTCTGTTCAAGCGCCATCTAC”, the binding signal (RPM ratio (pull-down/input)) turned out to be 4.75. To “GATGATTGTTCTCCCAGCTGATGAATTATGGAATTCGAGTAAACAAATTTTCCTAATCTTTCTGTTCAAGCGCCATCTAC” belongs 0.747; to “GATGATTGTTCTCCCAGCTGATGAATTAATCCTGTCGAGTAAACAAATTTTCCTAATCTTTCTGTTCAAGCGCCATCTAC”, 0.311; to “GATGATTGTTCTCCCAGCTGATGAATTAACTAGTTCGAGTAAACAAATTTTCCTAATCTTTCTGTTCAAGCGCCATCTAC”, 0.318. With “GATGATTGTTCTCCCAGCTGATGAATTTTGATCGTCGAGTAAACAAATTTTCCTAATCTTTCTGTTCAAGCGCCATCTAC”, the binding signal (RPM ratio (pull-down/input)) was 0.454.

Regarding “GATGATTGTTCTCCCAGCTGATGAATTACATCCGTCGAGTAAACAAATTTTCCTAATCTTTCTGTTCAAGCGCCATCTAC”, the binding signal (RPM ratio (pull-down/input)) stood at 0.431.

Consider “GATGATTGTTCTCCCAGCTGATGAATTCTTAGAATCGAGTAAACAAATTTTCCTAATCTTTCTGTTCAAGCGCCATCTAC”, for which the binding signal (RPM ratio (pull-down/input)) is 0.196. As to “GATGATTGTTCTCCCAGCTGATGAATTAATCGTGTCGAGTAAACAAATTTTCCTAATCTTTCTGTTCAAGCGCCATCTAC”, the binding signal (RPM ratio (pull-down/input)) came out at 0.74. Regarding “GATGATTGTTCTCCCAGCTGATGAATTACTCCTCTCGAGTAAACAAATTTTCCTAATCTTTCTGTTCAAGCGCCATCTAC”, the binding signal (RPM ratio (pull-down/input)) is 0.313.

“GATGATTGTTCTCCCAGCTGATGAATTCCAAACGTCGAGTAAACAAATTTTCCTAATCTTTCTGTTCAAGCGCCATCTAC”: the binding signal (RPM ratio (pull-down/input)) was 0.309. To “GATGATTGTTCTCCCAGCTGATGAATTCTCCAACTCGAGTAAACAAATTTTCCTAATCTTTCTGTTCAAGCGCCATCTAC” belongs 0.239; to “GATGATTGTTCTCCCAGCTGATGAATTATTGCCCTCGAGTAAACAAATTTTCCTAATCTTTCTGTTCAAGCGCCATCTAC”, 0.91; to “GATGATTGTTCTCCCAGCTGATGAATTTCCGGGCTCGAGTAAACAAATTTTCCTAATCTTTCTGTTCAAGCGCCATCTAC”, 0.194.

“GATGATTGTTCTCCCAGCTGATGAATTCAGGTCGTCGAGTAAACAAATTTTCCTAATCTTTCTGTTCAAGCGCCATCTAC”: the binding signal (RPM ratio (pull-down/input)) was 0.463.

Take “GATGATTGTTCTCCCAGCTGATGAATTCTCGAGATCGAGTAAACAAATTTTCCTAATCTTTCTGTTCAAGCGCCATCTAC”: the binding signal (RPM ratio (pull-down/input)) is 0.194. To “GATGATTGTTCTCCCAGCTGATGAATTCTCACCGTCGAGTAAACAAATTTTCCTAATCTTTCTGTTCAAGCGCCATCTAC” belongs 0.238. Then “GATGATTGTTCTCCCAGCTGATGAATTTATAGCATCGAGTAAACAAATTTTCCTAATCTTTCTGTTCAAGCGCCATCTAC”, with 1.75; and “GATGATTGTTCTCCCAGCTGATGAATTCCTCGCGTCGAGTAAACAAATTTTCCTAATCTTTCTGTTCAAGCGCCATCTAC”, with 0.461. Then “GATGATTGTTCTCCCAGCTGATGAATTGCTAGCTTCGAGTAAACAAATTTTCCTAATCTTTCTGTTCAAGCGCCATCTAC”, with 0.705. Take “GATGATTGTTCTCCCAGCTGATGAATTTCAAAACTCGAGTAAACAAATTTTCCTAATCTTTCTGTTCAAGCGCCATCTAC”: the binding signal (RPM ratio (pull-down/input)) was determined as 0.241. Then “GATGATTGTTCTCCCAGCTGATGAATTCCCCCAATCGAGTAAACAAATTTTCCTAATCTTTCTGTTCAAGCGCCATCTAC”, with 0.229. On to “GATGATTGTTCTCCCAGCTGATGAATTTGGATACTCGAGTAAACAAATTTTCCTAATCTTTCTGTTCAAGCGCCATCTAC”, for which the binding signal (RPM ratio (pull-down/input)) was determined as 1.85.

As to “GATGATTGTTCTCCCAGCTGATGAATTTCTATTCTCGAGTAAACAAATTTTCCTAATCTTTCTGTTCAAGCGCCATCTAC”, the binding signal (RPM ratio (pull-down/input)) was found to be 0.464.

Consider “GATGATTGTTCTCCCAGCTGATGAATTCCAAAGCTCGAGTAAACAAATTTTCCTAATCTTTCTGTTCAAGCGCCATCTAC”, for which the binding signal (RPM ratio (pull-down/input)) was 0.221. Then “GATGATTGTTCTCCCAGCTGATGAATTTATGTCGTCGAGTAAACAAATTTTCCTAATCTTTCTGTTCAAGCGCCATCTAC”, with 2.07. Regarding “GATGATTGTTCTCCCAGCTGATGAATTGTGAGCTTCGAGTAAACAAATTTTCCTAATCTTTCTGTTCAAGCGCCATCTAC”, the binding signal (RPM ratio (pull-down/input)) was found to be 0.816. Then “GATGATTGTTCTCCCAGCTGATGAATTGGATTCTTCGAGTAAACAAATTTTCCTAATCTTTCTGTTCAAGCGCCATCTAC”, with 0.472. On to “GATGATTGTTCTCCCAGCTGATGAATTCCTATTCTCGAGTAAACAAATTTTCCTAATCTTTCTGTTCAAGCGCCATCTAC”, for which the binding signal (RPM ratio (pull-down/input)) was 0.424.

For “GATGATTGTTCTCCCAGCTGATGAATTTCCCTTCTCGAGTAAACAAATTTTCCTAATCTTTCTGTTCAAGCGCCATCTAC”, the binding signal (RPM ratio (pull-down/input)) was 0.295. For “GATGATTGTTCTCCCAGCTGATGAATTACGGTATTCGAGTAAACAAATTTTCCTAATCTTTCTGTTCAAGCGCCATCTAC”, the binding signal (RPM ratio (pull-down/input)) stood at 1.04. To “GATGATTGTTCTCCCAGCTGATGAATTCCGGGAGTCGAGTAAACAAATTTTCCTAATCTTTCTGTTCAAGCGCCATCTAC” belongs 0.233. Consider “GATGATTGTTCTCCCAGCTGATGAATTGGTTACCTCGAGTAAACAAATTTTCCTAATCTTTCTGTTCAAGCGCCATCTAC”, for which the binding signal (RPM ratio (pull-down/input)) is 0.673. To “GATGATTGTTCTCCCAGCTGATGAATTGAACATGTCGAGTAAACAAATTTTCCTAATCTTTCTGTTCAAGCGCCATCTAC” belongs 0.36; to “GATGATTGTTCTCCCAGCTGATGAATTGTGATGCTCGAGTAAACAAATTTTCCTAATCTTTCTGTTCAAGCGCCATCTAC”, 1.96. Then “GATGATTGTTCTCCCAGCTGATGAATTAGGCTTCTCGAGTAAACAAATTTTCCTAATCTTTCTGTTCAAGCGCCATCTAC”, with 1.69. Turning to “GATGATTGTTCTCCCAGCTGATGAATTTCTCGACTCGAGTAAACAAATTTTCCTAATCTTTCTGTTCAAGCGCCATCTAC”, the binding signal (RPM ratio (pull-down/input)) amounted to 0.234. Then “GATGATTGTTCTCCCAGCTGATGAATTCAATGGCTCGAGTAAACAAATTTTCCTAATCTTTCTGTTCAAGCGCCATCTAC”, with 0.609; and “GATGATTGTTCTCCCAGCTGATGAATTCACGACCTCGAGTAAACAAATTTTCCTAATCTTTCTGTTCAAGCGCCATCTAC”, with 0.269. To “GATGATTGTTCTCCCAGCTGATGAATTTAGGACGTCGAGTAAACAAATTTTCCTAATCTTTCTGTTCAAGCGCCATCTAC” belongs 0.367; to “GATGATTGTTCTCCCAGCTGATGAATTACTATGTTCGAGTAAACAAATTTTCCTAATCTTTCTGTTCAAGCGCCATCTAC”, 0.583; to “GATGATTGTTCTCCCAGCTGATGAATTGTATCAATCGAGTAAACAAATTTTCCTAATCTTTCTGTTCAAGCGCCATCTAC”, 1.23.

For the sequence “GATGATTGTTCTCCCAGCTGATGAATTAAGGCCTTCGAGTAAACAAATTTTCCTAATCTTTCTGTTCAAGCGCCATCTAC”, the binding signal (RPM ratio (pull-down/input)) is 1.53. To “GATGATTGTTCTCCCAGCTGATGAATTGGCATCTTCGAGTAAACAAATTTTCCTAATCTTTCTGTTCAAGCGCCATCTAC” belongs 4.07; to “GATGATTGTTCTCCCAGCTGATGAATTATGCGTCTCGAGTAAACAAATTTTCCTAATCTTTCTGTTCAAGCGCCATCTAC”, 5.32. To “GATGATTGTTCTCCCAGCTGATGAATTCATCACTTCGAGTAAACAAATTTTCCTAATCTTTCTGTTCAAGCGCCATCTAC” belongs 1.28; to “GATGATTGTTCTCCCAGCTGATGAATTCCGCGAATCGAGTAAACAAATTTTCCTAATCTTTCTGTTCAAGCGCCATCTAC”, 0.245; to “GATGATTGTTCTCCCAGCTGATGAATTCCGCCCATCGAGTAAACAAATTTTCCTAATCTTTCTGTTCAAGCGCCATCTAC”, 1.79.

Regarding “GATGATTGTTCTCCCAGCTGATGAATTTGGTTTGTCGAGTAAACAAATTTTCCTAATCTTTCTGTTCAAGCGCCATCTAC”, the binding signal (RPM ratio (pull-down/input)) came out at 4.05.

Take “GATGATTGTTCTCCCAGCTGATGAATTCTCTGATTCGAGTAAACAAATTTTCCTAATCTTTCTGTTCAAGCGCCATCTAC”: the binding signal (RPM ratio (pull-down/input)) was found to be 0.225. Then “GATGATTGTTCTCCCAGCTGATGAATTTCTGTGTTCGAGTAAACAAATTTTCCTAATCTTTCTGTTCAAGCGCCATCTAC”, with 0.716; and “GATGATTGTTCTCCCAGCTGATGAATTCCGCAAGTCGAGTAAACAAATTTTCCTAATCTTTCTGTTCAAGCGCCATCTAC”, with 2.2; and “GATGATTGTTCTCCCAGCTGATGAATTAGATAAATCGAGTAAACAAATTTTCCTAATCTTTCTGTTCAAGCGCCATCTAC”, with 0.313. Then “GATGATTGTTCTCCCAGCTGATGAATTAAAGTGGTCGAGTAAACAAATTTTCCTAATCTTTCTGTTCAAGCGCCATCTAC”, with 0.348; and “GATGATTGTTCTCCCAGCTGATGAATTAAGCAATTCGAGTAAACAAATTTTCCTAATCTTTCTGTTCAAGCGCCATCTAC”, with 4.27. To “GATGATTGTTCTCCCAGCTGATGAATTCGTAAGTTCGAGTAAACAAATTTTCCTAATCTTTCTGTTCAAGCGCCATCTAC” belongs 0.449; to “GATGATTGTTCTCCCAGCTGATGAATTCAGTACATCGAGTAAACAAATTTTCCTAATCTTTCTGTTCAAGCGCCATCTAC”, 0.561; to “GATGATTGTTCTCCCAGCTGATGAATTCCGAAGGTCGAGTAAACAAATTTTCCTAATCTTTCTGTTCAAGCGCCATCTAC”, 0.222. As to “GATGATTGTTCTCCCAGCTGATGAATTTTAAGGTTCGAGTAAACAAATTTTCCTAATCTTTCTGTTCAAGCGCCATCTAC”, the binding signal (RPM ratio (pull-down/input)) came to 0.337. To “GATGATTGTTCTCCCAGCTGATGAATTGAGCACATCGAGTAAACAAATTTTCCTAATCTTTCTGTTCAAGCGCCATCTAC” belongs 0.724; to “GATGATTGTTCTCCCAGCTGATGAATTCACCGGGTCGAGTAAACAAATTTTCCTAATCTTTCTGTTCAAGCGCCATCTAC”, 0.179; to “GATGATTGTTCTCCCAGCTGATGAATTCGCCGCATCGAGTAAACAAATTTTCCTAATCTTTCTGTTCAAGCGCCATCTAC”, 0.966. For the sequence “GATGATTGTTCTCCCAGCTGATGAATTCTTCCCCTCGAGTAAACAAATTTTCCTAATCTTTCTGTTCAAGCGCCATCTAC”, the binding signal (RPM ratio (pull-down/input)) turned out to be 0.198. To “GATGATTGTTCTCCCAGCTGATGAATTTGCGCCCTCGAGTAAACAAATTTTCCTAATCTTTCTGTTCAAGCGCCATCTAC” belongs 1.11.
